Data taken from PMC12040169 (PLOS Biology, 2025).
The list shows a part of the results.

tested on: T1, C. trachomatis L2/434/Bu expressing GFP (CTL2-GFP); parameters: species or system HeLa; C. trachomatis total inclusion area by high-content imaging, normalised to DMSO; settings: total inclusion area; 28.5 h, 10 µM; inhibitor
T1 construct: L2/434/Bu GFP intracellular growth in HeLa cells
Outline: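 Imaging read-out: GFP inclusions and Hoechst nuclei captured by high-content imaging after fixation. Inclusion area/number = chlamydial growth; nuclei count = host cell viability. MIC calculated per earlier method.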

SMILES | % of control remaining
Cc1cccc(Cc2cccc(C3CCCN(C(=O)c4ccc(=O)[nH]c4)C3)n2)c1 (stereo not drawn) [CBK286243] | 130.417
Cc1csc2ncc(C(=O)NCc3ccc4c(c3)OCO4)c(=O)n12 [CBK287292] | 87.7428
COc1ccc(OC)c(NC(=O)CN2CCN(c3ccccn3)CC2)c1 [CBK262978] | 80.9498
C[C@@H]1[C@H]2C[C@@H](C[C@H]1NC1=NC(=O)C(CC(=O)O)S1)C2(C)C (stereo partly drawn) [CBK059514] | 131.135
O=C(c1ccco1)N1CCc2c([nH]c3ccccc23)C12CCN(Cc1ccccc1)CC2 [CBK286313] | 121.99
Cc1cc(C)c(C#N)c(N2CCOC3(CCN(C(=O)OCc4ccccc4)CC3)C2)n1 [CBK161114T] | 99.6024
COc1ccc(C)cc1S(=O)(=O)n1cc2c3c(cccc31)CN(C(=O)CN(C)C)C2 [CBK155549T] | 78.3103
CSc1ccc(-c2cn3ccnc3c(N3CCN(CCO)CC3)n2)cc1 [CBK066596] | 112.417
Nc1ncc(-c2cccc(Br)c2)nc1NC1CCOCC1 [CBK063854] | 121.5
COc1cccc(Nc2cc(-c3cccc(N)c3)ncn2)c1OC [CBK090726] | 114.626
Cc1ccc(-c2oncc2C(=O)NCc2ccc(S(N)(=O)=O)cc2)cc1 [CBK154912] | 103.464
Cc1cc(-c2cn3cc(C(=O)NCCO)nc3c(=O)n2C)c(C)o1 [CBK307288] | 75.4217
Cc1ccc(S(=O)(=O)NCCSc2ccccn2)cc1[N+](=O)[O-] [CBK263566] | 65.8309
Cc1cc(C2CCCCCN2C(=O)c2ccccc2F)on1 (stereo not drawn) [CBK284842] | 96.9859
CCOC(=O)c1ccc(-c2[nH]cnc2-c2c(C)cc(OC)cc2O)o1 [CBK026647] | 83.5499
CC(NC(=O)Cc1c[nH]c(=O)[nH]c1=O)c1cc2cc(Cl)ccc2o1 (stereo not drawn) [CBK285673] | 94.0864
CC(C)(C)c1ccc(Oc2c(C(F)(F)F)oc3cc(OCC(=O)O)ccc3c2=O)cc1 [CBK217882] | 113.645
COc1ncccc1-c1csc(N2CCOC(C)C2)n1 (stereo not drawn) [CBK304118] | 35.554
Cc1cc(Br)cc(C)c1OCC(=O)NNC(=O)Cc1cccc2ccccc12 [CBK267151] | 108.542
c1ccc2c(c1)CCC(CNCCN1CCOCC1)O2 (stereo not drawn) [CBK023956G] | 96.7686
O=C(N[C@H]1CCN2C(=O)[C@H]3CCCN3C(=O)[C@@H]2C1)c1cccs1 [CBK289538] | 117.631
